# Laboratory results: publication PMC4336329 (PLoS ONE, 2015)
# Hit rate of the full screen: of about 310,000 compounds, about 14,000 (4.5%) showed an effect of 50% or more. Effects have a minus sign here. This is one part of the list.
# Target: human ether-à-go-go-related gene (hERG) potassium channel (human, UniProt Q12809)
# Test: primary screen, population patch clamp on CHO cells stably expressing hERG
# 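Note: peak tail current of the secondary pulse compared with the same well before compound.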
# Chain of human ether-à-go-go-related gene (hERG) potassium channel (Q12809 whole entry, looked up): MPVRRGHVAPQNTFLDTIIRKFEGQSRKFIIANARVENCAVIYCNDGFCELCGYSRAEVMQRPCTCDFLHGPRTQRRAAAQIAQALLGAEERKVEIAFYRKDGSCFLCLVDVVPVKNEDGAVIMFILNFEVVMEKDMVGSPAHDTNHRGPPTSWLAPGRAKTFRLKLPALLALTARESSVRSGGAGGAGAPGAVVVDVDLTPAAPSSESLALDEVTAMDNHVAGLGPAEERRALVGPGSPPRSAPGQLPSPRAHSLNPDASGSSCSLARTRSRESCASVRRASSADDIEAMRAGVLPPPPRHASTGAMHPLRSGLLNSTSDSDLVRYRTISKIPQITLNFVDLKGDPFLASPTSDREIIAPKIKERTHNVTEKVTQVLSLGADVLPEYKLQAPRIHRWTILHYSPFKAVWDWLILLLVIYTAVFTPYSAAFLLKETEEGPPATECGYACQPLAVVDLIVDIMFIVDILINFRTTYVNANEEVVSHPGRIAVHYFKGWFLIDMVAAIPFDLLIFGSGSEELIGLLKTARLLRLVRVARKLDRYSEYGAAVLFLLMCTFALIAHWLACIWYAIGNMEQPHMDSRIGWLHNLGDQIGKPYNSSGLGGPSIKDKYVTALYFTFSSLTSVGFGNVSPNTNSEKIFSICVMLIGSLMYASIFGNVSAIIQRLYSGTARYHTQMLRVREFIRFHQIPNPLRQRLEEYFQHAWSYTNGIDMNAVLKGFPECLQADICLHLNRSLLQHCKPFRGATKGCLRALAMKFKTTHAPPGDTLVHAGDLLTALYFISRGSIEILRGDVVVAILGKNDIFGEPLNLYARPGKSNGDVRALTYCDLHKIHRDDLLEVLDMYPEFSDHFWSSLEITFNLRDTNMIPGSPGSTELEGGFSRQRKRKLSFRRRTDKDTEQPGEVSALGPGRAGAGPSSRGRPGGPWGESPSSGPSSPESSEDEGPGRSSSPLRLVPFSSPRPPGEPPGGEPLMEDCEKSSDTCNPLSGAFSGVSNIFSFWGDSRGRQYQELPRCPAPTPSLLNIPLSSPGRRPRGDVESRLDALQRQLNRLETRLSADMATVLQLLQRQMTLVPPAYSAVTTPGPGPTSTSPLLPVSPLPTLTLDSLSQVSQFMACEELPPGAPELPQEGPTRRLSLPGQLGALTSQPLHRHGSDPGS
row,Structure (SMILES),"hERG current change (%, negative = inhibition) at 10uM [%]"
1,Cc1sc(NC(=O)CS(=O)(=O)c2ccccc2)c(C(N)=O)c1C,-20.9
2,Cc1ccc(NS(=O)(=O)c2c(C)[nH]c(=O)[nH]c2=O)c(C)c1,24.3
3,CCn1c(C)nnc1SCC(=O)NC1CCCCCC1,19.3
4,COc1ccc(NC(=O)CCCCCN2C(=O)CCC2=O)cc1Cl,-2.22
5,N#CCc1ccc(OC(=O)c2cnccc2C(F)(F)F)cc1,6.26
6,COc1ccccc1N1CC(C(=O)OCC(=O)c2ccc(F)cc2)CC1=O (centres unmarked),-5.48
7,CCN(C(=O)CSc1ncn[nH]1)C1CCCCC1,6.3
8,CCOC(=O)CCP(=O)(O)C(C)(O)c1ccccc1 (centres unmarked),8.5
9,Cn1c(CO)cnc1SCC(=O)c1ccc(Br)cc1,8.93
10,O=C(c1cn(-c2ccccc2)nc1-c1cccs1)N1CCN(c2ccc(F)cc2)CC1,-11.2
11,Cc1cccnc1NC(=O)CN1C(=O)NC(C)(c2ccc3ccccc3c2)C1=O (centres unmarked),-14
12,Cc1onc(-c2ccccc2)c1C(=O)Nc1nnc(C(C)C)s1,-1.03
13,CCSc1nnc(Cc2cc(=O)[nH]c(=O)[nH]2)n1-c1ccc(F)cc1,15.4
14,O=C(NCc1ccccc1)c1cc(-c2ccncc2)nc2ccc(S(=O)(=O)N3CCOCC3)cc12,-23
15,O=C(N=C1SC2CS(=O)(=O)CC2N1c1ccccc1C(F)(F)F)C1CCCO1 (centres unmarked),2.32
16,COc1ccc(C(CNC(=O)C(CCSC)NC(=O)c2ccccc2Cl)N2CCOCC2)cc1 (centres unmarked),-8.2
17,Cc1cc(O)c(C(C)C)cc1NS(=O)(=O)c1ccccc1,3.62
18,COc1ccc(CCN2CN(S(=O)(=O)c3ccccc3)c3nc4ccccc4nc32)cc1OC,-0.784
19,O=C1c2cc(CO)cc(O)c2C(=O)c2c(O[C@@H]3OC(CO)[C@@H](O)[C@@H](O)[C@@H]3O)cccc21 (some centres unmarked),22
20,O=S(=O)(NCc1cn2ccsc2n1)c1ccc(Oc2ccccc2)cc1,-5.62
21,Cc1ncc([N+](=O)[O-])n1CCOC(=O)NC(NCc1ccccc1Cl)C(Cl)(Cl)Cl (centres unmarked),-37.8
22,COc1ccc(NC(=O)C2(c3ccc(NC(=O)c4ccc(OC)cc4)cc3)CCCC2)cc1,-9.88

row,Structure (SMILES),"hERG current change (%, negative = inhibition) at 10uM [%]"
1,O=C(O)c1cccc(Nc2nc(N3CCOCC3)nc(N3CCOCC3)n2)c1,-2.93
2,COc1ccc(S(=O)(=O)N2CCOCC2)cc1C(=O)N1CCCC1,14
3,O=C(O)CN1C(=O)S/C(=C\c2cccnc2)C1=O,8.9
4,Cc1c(C(N)=O)sc2ncn(CC(=O)NCCc3ccccc3)c(=O)c12,3.18
5,Cc1cc(C)nc(NS(=O)(=O)c2ccc(NC(=O)c3ccc(N4C(=O)CCC4=O)cc3)cc2)n1,11.1
6,CCOc1ccc(-c2csc(NC(=O)c3ccco3)n2)cc1,0.136
7,CC(=O)Nc1ccc(C(=O)OCC(=O)Nc2ccc(Cl)cc2C(=O)c2ccccc2)cc1,-10.2
8,CCOc1ccc(NS(=O)(=O)c2ccc(C(=O)N(C)CC(=O)Nc3ccc(C)cc3)cc2)cc1,2.63
9,CC(C)[C@H]1CN=C2N(CCNC(=O)CCC3CCCCC3)[C@H](Cc3ccc(O)cc3)CN21,-40.2
10,O=C(Nc1ccc(-n2cc(Br)cn2)cc1)c1ccncc1,22.2
11,COc1ccccc1N1CC(C(=O)OCC(=O)Nc2c(C)cccc2C)CC1=O (centres unmarked),17
12,c1ccc2c(CN3CCOCC3)c[nH]c2c1,15.1
13,CCOC(=O)c1[nH]c2ccccc2c1N=C(C)N(CC)CC,-54.7
14,NC(=O)c1ccc(Oc2cccc3cccnc23)c([N+](=O)[O-])c1,-13.4
15,Cc1ccccc1CNC(=O)CC1C(=O)NCCN1CC1CCCCC1 (centres unmarked),6.33
16,CSc1cccc(NC(N)=O)c1,-3.78
17,O=C(Nc1cccc(Cl)c1)OC1CCCCc2cccnc21 (centres unmarked),4.75
18,NC(=O)c1c(NC(=O)c2ccc(F)cc2)sc2c1CCC2,12.3
19,CCOC(=O)N1CCC2(CC1)C(C#N)=C(N)Oc1n[nH]c(CSc3ccc(C)cc3)c12,-6.73
20,CSC1=NCCN1C(=O)COc1ccccc1,11.3
21,O=C(O)c1ccc(NC(=S)NC(NC(=O)c2ccco2)C(Cl)(Cl)Cl)cc1 (centres unmarked),9.22
22,COc1ccc(CCC(=O)NCCc2cn3c(C)csc3n2)cc1,-8.8

row,Structure (SMILES),"hERG current change (%, negative = inhibition) at 10uM [%]"
1,COc1cccc(NC(=O)Nc2cccn(Cc3ccc(C)cc3)c2=O)c1,22.5
2,CC1=C(C(=O)N2CCOCC2)C(c2ccccc2F)NC(=O)N1 (centres unmarked),9.15
3,Cc1ccc(S(=O)(=O)N(CC(=O)N2CCOCC2)c2ccc(Br)cc2)cc1,-42.9
4,CCC(C)C(=O)Nc1nnc(SCC(=O)Nc2ccc(F)cc2)s1 (centres unmarked),11
5,Cc1ccc(N2CC(C(=O)Nc3ccc(S(=O)(=O)N4CCCC4)cc3)CC2=O)cc1 (centres unmarked),-8.07
6,O=C(NCCC1=CCCCC1)c1ccc(Cl)cc1,-1.09
7,COc1ccc(C(F)(F)F)cc1N/C=C\c1nnnn1-c1ccccc1,15.2
8,NS(=O)(=O)c1ccc(NC(=O)Cn2nc(C(=O)O)c3ccccc3c2=O)cc1,27.4
9,COc1ccc2c(c1)N(C)/C(=C1/SC(=NCc3ccccc3)N(c3ccccc3)C1=O)S2,20.8
10,CCN(CC)c1ccc(C(=O)NNC(=O)CCc2nc3ccccc3c(=O)[nH]2)cc1,17.9
11,CC(C)=CCC12CN3CCN(CC(C3)C1=O)C2,4.66
12,COC(=O)CN1C(=O)[C@H]2[C@@H](c3ccc(C)o3)N3C(=O)CN(Cc4ccc(-c5ccccc5)cc4)C(=O)[C@@]3(C)[C@H]2C1=O,-18.1
13,CC1(C)COC(c2cccn2Cc2ccccc2Cl)=N1,6.61
14,COC(=O)C1=C(c2ccc(F)cc2F)C[C@@H]2CC[C@H]1N2C(=O)N1CCC(O)(c2ccc(Cl)cc2)CC1,-21.1
15,O=C(CCS(=O)(=O)Cc1ccccc1)NC1CCCCC1,1.9
16,O=C(COc1ccc(Br)cc1)N/N=C1\SCC(=O)N1c1ccc(F)cc1,-20.5
17,Cc1cccc(-n2ncc3c2CCCC3NC(=O)CCN2CCCO2)c1C (centres unmarked),14.7
18,O=c1cccc2n1CC1CC2CN(c2ncnc3c2cnn3-c2ccccc2)C1 (centres unmarked),-30
19,CCOc1ccc2[nH]cc(C(=O)N3CCN(CC)CC3)c(=O)c2c1,-10.3
20,CNC(=O)CN(c1cc(C)ccc1C)S(C)(=O)=O,-3.52
21,COc1cc(NC(=O)c2ccccc2)ccc1NC(=O)c1cc2ccccc2o1,25.8
22,CNS(=O)(=O)c1ccc(NC(=O)C2c3ccccc3Oc3ccccc32)cc1,1.39

row,Structure (SMILES),"hERG current change (%, negative = inhibition) at 10uM [%]"
1,Fc1ccccc1CNc1ccc(Cl)c(Cl)c1,9.9
2,CCN(CC)CCn1c2ccccc2c2nc(C)sc21,-30.6
3,COc1ccccc1C(=O)N(Cc1sccc1C)C1CCS(=O)(=O)C1 (centres unmarked),15.4
4,Cn1c(SCC(=O)Nc2ccc3c(c2)OCO3)nnc1-c1cnccn1,-2.11
5,COc1ccc(NC(=O)NCc2ccc3c(c2)OCO3)cc1OC,1.25
6,N#C/C(=C\c1ccc(O)c(O)c1)S(=O)(=O)c1ccccc1,5.35
7,CCc1ccccc1-n1nnnc1SCC(=O)Nc1cc(C)on1,3.52
8,COc1cc2cc(C)c(SCC(=O)N3CCN(C(=O)c4ccco4)CC3)nc2cc1OC,-66
9,Cn1ncc(C#N)c1NC(=O)C1CC(c2c(F)cccc2Cl)=NO1 (centres unmarked),-0.534
10,COc1ccc(-n2nc(C(=O)NCC(=O)N3CCCC(C)C3)c3ccccc3c2=O)cc1 (centres unmarked),17.8
11,CC(NC(=O)C(C)N1c2cccc3cccc(c23)S1(=O)=O)c1ccccc1 (centres unmarked),25.8
12,CCOc1ccccc1OCC(=O)Nc1nnc(COC)s1,-13.7
13,CC(=O)Nc1cc(C(=O)OCC(=O)c2ccc(Cl)cc2Cl)ccc1C,17.5
14,CC(C)(CN1CCc2ccccc2C1)NS(=O)(=O)c1ccc(Cl)cc1,-38.9
15,CCCCN(C(=O)Cc1coc2cc(C)c(C)cc12)c1c(N)n(Cc2ccccc2)c(=O)[nH]c1=O,-23.6
16,O=C(Cn1nc(CNc2ccc(Cl)cc2)[n+]2c1CCCCC2)c1ccc(Cl)cc1.[Br-],-8.17
17,Cc1cccc(-n2nnc(C(=O)NC3CCCc4ccccc43)c2N)c1 (centres unmarked),6.92
18,Cc1ccc(C)n1-c1cccc(C(=O)O)c1,0.363
19,CC(=O)NC(CC(=O)NNC(=O)C(C)Oc1ccccc1F)c1ccccc1 (centres unmarked),7.84
20,Cc1ccc(S(=O)(=O)Nc2ccccc2CNc2c(C)n(C)n(-c3ccccc3)c2=O)cc1,-30.7
